Assay results from PubChem BioAssay AID488969 (Vanderbilt High Throughput Screening Facility, 2010).
Over roughly 110,000 compounds, “z-score” has its median near -0.1; the highest 2% begin near 2. The list shows a part of the results. Active and inactive are the calls of the source.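 Rule for the calls: active = z-score in the third read window above 3 or below -3; inactive = the rest.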

Molecular target: Metabotropic glutamate receptor 8 (Rattus norvegicus) (UniProt P70579)
Experiment: rat mGluR8 modulators via GIRK flux, primary screen, cell-based, thallium flux, HTS (AID 488969)
Conditions: HEK293 rat mGluR8, GIRK (G protein-gated inwardly rectifying potassium channel) thallium flux, FluoZin2; at 10 µM; stronger effect = higher value; submaximal glutamate (EC20) added with thallium

Chain of UniProt P70579 (P70579 whole entry, looked up): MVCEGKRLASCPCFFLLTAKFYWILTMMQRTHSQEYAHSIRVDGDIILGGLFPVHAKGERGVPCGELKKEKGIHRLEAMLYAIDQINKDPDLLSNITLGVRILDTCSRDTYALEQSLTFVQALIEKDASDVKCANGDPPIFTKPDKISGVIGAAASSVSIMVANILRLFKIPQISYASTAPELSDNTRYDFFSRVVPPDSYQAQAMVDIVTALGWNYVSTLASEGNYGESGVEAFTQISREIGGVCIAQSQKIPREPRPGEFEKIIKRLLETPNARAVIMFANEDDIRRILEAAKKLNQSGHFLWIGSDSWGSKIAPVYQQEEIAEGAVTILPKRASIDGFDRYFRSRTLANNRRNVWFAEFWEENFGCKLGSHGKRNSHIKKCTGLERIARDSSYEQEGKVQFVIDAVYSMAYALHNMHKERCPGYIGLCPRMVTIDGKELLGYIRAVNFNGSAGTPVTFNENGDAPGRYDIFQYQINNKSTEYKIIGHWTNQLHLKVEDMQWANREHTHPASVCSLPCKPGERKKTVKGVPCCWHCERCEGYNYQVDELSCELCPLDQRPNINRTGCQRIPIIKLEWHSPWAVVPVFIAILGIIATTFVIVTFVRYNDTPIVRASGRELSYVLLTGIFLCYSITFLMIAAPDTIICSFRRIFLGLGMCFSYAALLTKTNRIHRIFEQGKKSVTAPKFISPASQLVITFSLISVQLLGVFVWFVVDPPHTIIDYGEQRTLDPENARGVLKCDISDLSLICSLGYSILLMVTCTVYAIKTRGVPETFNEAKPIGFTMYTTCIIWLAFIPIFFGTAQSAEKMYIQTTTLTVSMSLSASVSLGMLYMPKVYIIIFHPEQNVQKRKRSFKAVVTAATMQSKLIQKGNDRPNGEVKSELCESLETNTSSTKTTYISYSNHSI

| Compound | z-score |
| --- | --- |
| Cc1ccc(/C=C/C(=O)Nc2cc(S(=O)(=O)N3CCCCCC3)ccc2OCC(F)(F)F)o1 | 0.00396 |
| COC(=O)c1ccc(Cn2nnc3c(sc4nc(N5CCOCC5)c5c(c43)CCCC5)c2=O)o1 | -0.0753 |
| CC(/C=N/NC(=O)c1cc(C(C)C)[nH]n1)=C\c1ccccc1 | -0.581 |
| CCCCCc1nc2sc3c(c2c(=O)n1NC(=O)c1ccc([N+](=O)[O-])cc1)CC(C)(C)OC3 | 0.0875 |
| Cc1cccc(NS(=O)(=O)c2cc(C(=O)N3CCN(C)CC3)ccc2C)c1 | 0.154 |
| COc1ccccc1C(CC(=O)Nc1ccccc1C)c1ccc(OC(C)C)cc1 (stereo unspecified) | 0.159 |
| CC(C)CN(C(=O)c1nn(C)c(=O)c2ccccc12)c1nc2ccccc2s1 | 0.13 |
| Cc1ccc(N/C=C/C(=O)C(C)(C)C)c(O)c1 | -0.228 |
| CC(=O)N1CCC(=O)N(C(C)C)c2ccccc21 | 0.519 |
| O=C(CN(c1cccc(C(F)(F)F)c1)S(=O)(=O)c1ccc(Cl)c([N+](=O)[O-])c1)NCc1ccccc1Cl | -0.209 |
| O=C(O)c1ccc(NS(=O)(=O)c2cc(C(=O)O)ccc2Br)cc1 | -0.467 |
| Cc1ccc(-c2cc(C(=O)NCc3cccnc3)no2)cc1 | 0.224 |
| Nc1nnnn1/N=C/c1cccc(OCc2ccccc2Cl)c1 | -0.00468 |
| O=C(O)C1C2C=CC(C2)C1C(=O)NC1CCN(Cc2ccccc2)CC1 (stereo unspecified) | 0.581 |
| COC(=O)CSC1=NS(=O)(=O)c2ccccc21 | -2.06 |
| CCOC(=O)C(C)On1c(-c2cccc(Cl)c2)nc2ccc([N+](=O)[O-])cc21 (stereo unspecified) | 0.66 |
| Cc1cc(NCCN2CCOCC2)n2ncc(-c3ccc(Cl)cc3)c2n1 | -0.0491 |
| O=C(CCC1COc2ccccc2O1)Nc1ncccc1O (stereo unspecified) | -0.575 |
| COc1ccc2cc(C(c3nnnn3C3CCCCC3)N3CCCCCC3)c3nnnn3c2c1 (stereo unspecified) | -0.929 |
| CCNC(=S)N/N=C(\C)c1cc2ccccc2o1 | active: 8.26 |
| Cc1ccc(C)n1-c1ccc(C(=O)NN)cc1 | 2.5 |
| O=C(CN1CCCCCC1)Nc1ccc(Br)cc1 | -0.108 |
| COC(=O)c1ccc(Oc2c(C)oc3cc(OCc4cnn(-c5ccccc5)c4)ccc3c2=O)cc1 | -1.6 |
| N#CCSc1nnc(-c2ccccc2O)n1Cc1ccccc1 | -0.264 |

| Compound | z-score |
| --- | --- |
| NC(=O)COC(=O)c1ccccc1Nc1ccc(SC(F)F)cc1 | -0.248 |
| COc1ccc(-c2cc(-c3nnc(-c4ccncc4)o3)c3ccccc3n2)cc1 | 0.255 |
| COc1cc(NS(=O)(=O)N2CCCC2)cc(OC)c1OC | 0.599 |
| N#CCCN(C(=O)Nc1ccc(Cl)cc1)c1ccccc1 | -0.486 |
| CCOc1cc(/C=N/NC(=O)C(=O)NC)cc(Br)c1O | -0.261 |
| COC(=O)CN(c1ccc(C)cc1)S(=O)(=O)c1c(C)[nH]c(=O)[nH]c1=O | -0.359 |
| CCCCCC(=O)N(CN1C(=O)CCC1=O)c1ccccc1 | -0.238 |
| Cc1ccc2[nH]c(-c3ccccc3)c(CN(C)C)c(=O)c2c1 | -0.255 |
| O=C(CCNC(=O)c1ccc(Cl)cc1)Nc1ccc(F)cc1F | -0.198 |
| O=C(Nc1ccccc1Cl)N1CCN(c2ncccn2)CC1 | 0.0134 |
| COc1ccc(S(=O)(=O)Nc2ccc(CC#N)cc2)cc1 | 0.0758 |
| CCn1c(COc2ccc(C)cc2)nnc1SCC(=O)Nc1ccc(S(N)(=O)=O)cc1 | -1.15 |
| CCSc1ccc(NC(=O)c2cccnc2)cc1 | 1.15 |
| O=C(Nc1nc2ccccc2[nH]1)C1CCN(S(=O)(=O)c2cccs2)CC1 | -0.487 |
| COc1ccc(OC)c(NC(=O)Cn2c(CCC(=O)O)ccc2-c2cccs2)c1 | -0.116 |
| Cc1ccc(Sc2c(C)nn(C(=O)c3cccc(S(=O)(=O)N4CCOCC4)c3)c2C)cc1 | 0.262 |
| CCN1CCN(CCNC(=O)CCCCCn2c(=O)[nH]c3cc(C(=O)OC)ccc3c2=O)CC1 | -0.206 |
| O=C(NCCN1CCOCC1)c1cc(-c2ccc(Cl)cc2)on1 | 0.332 |
| CC1CC(C)CN(CCCNC(=O)Cc2c(C(=O)O)[nH]c3ccccc23)C1 (stereo unspecified) | 0.334 |
| CCOc1ccc(C2C(=O)N(C3CCCCC3)CC(=O)N2CC2CCCO2)cc1OC (stereo unspecified) | -0.778 |
| O=C(CCn1cccc1)Nc1ccc(F)cc1 | -0.0216 |
| Cc1cc(Cl)ccc1OC(C)C(=O)NCCCCc1ccccc1 (stereo unspecified) | -0.116 |
| O=C(O)C1CCN(S(=O)(=O)c2ccc(Oc3ccccc3)cc2)CC1 | -0.051 |
| O=C(/C=C/c1ccccc1)NCCOc1ccccc1 | -0.291 |

| Compound | z-score |
| --- | --- |
| CCOc1cc(/C=N/O)cc(Br)c1OC | 0.682 |
| Oc1cccc(-c2nc3c4c(ncn3n2)-c2ccccc2CC42CCCC2)c1 | -0.0248 |
| N=c1oc2ccccc2cc1-c1nc2ccccc2c(=O)[nH]1 | 0.218 |
| CCOc1c2ccc(C(=O)NCCc3ccc(C)cc3)cc2nn1CC | -0.287 |
| COc1cccc(CN2CCN(c3cccc(C(F)(F)F)c3)CC2)c1OC | 0.95 |
| CCn1c(/C=C/Nc2ccccc2)[n+](CC)c2cc(Cl)c(Cl)cc21 | -0.581 |
| CC1=NN(c2nc(C)cc(C)n2)C(=O)C1CCC(C)C (stereo unspecified) | 0.328 |
| CCC1CCCCN1C(=O)c1nn2cccnc2c1Cl (stereo unspecified) | 0.18 |
| O=C1CC(N2CCCCC2)C(=O)N1c1ccccc1 (stereo unspecified) | -0.119 |
| O=C(/C=C/c1ccccc1)NCC(=O)N/N=C\c1cccnc1 | 0.429 |
| Cc1cccc(N(CC(=O)Nc2ccccc2F)S(C)(=O)=O)c1 | -0.443 |
| Cc1cccc(/C=N/n2c(-c3ccccn3)n[nH]c2=S)c1 | -0.174 |
| COc1ccc(C(=O)Nc2sc3c(c2C(=O)NCc2ccco2)CCCC3)cc1OC | -1.01 |
| Cc1cccc(NC(=O)c2ccc(S(=O)(=O)C(F)F)cc2)c1C | -0.191 |
| CN(C)c1oc(-c2ccccc2)nc1C#N | -0.0974 |
| Cc1c(C#N)c2ncnc(-c3ccccc3)c2n1-c1ccccc1 | -0.446 |
| Cc1scc(C(=O)N2CCN(S(C)(=O)=O)CC2)c1-c1ccccc1 | 0.0619 |
| O=C(CN(Cc1cccs1)C(=O)CNS(=O)(=O)c1ccccc1)NCc1ccco1 | 0.0572 |
| CCC(C(=O)NC1CCCC1)N(Cc1ccco1)C(=O)Cn1nnc(-c2ccc(C)cc2)n1 (stereo unspecified) | -0.303 |
| C#CCn1c(=NC(=O)c2ccc(Cl)s2)sc2cccc(OC)c21 | -0.074 |
| O=C(Cn1c(=O)[nH]c2ccsc2c1=O)NC1CCCCC1 | -0.236 |
| Cc1cccc(NC(=O)c2ccc(S(=O)(=O)N(C)C)cc2)n1 | -0.221 |
| Cc1ccccc1OCC(=O)OCC(=O)c1ccc(OCc2ccccc2)cc1 | -0.23 |
